{"source": "a collection of fitness landscapes (doi:10.1016/j.celrep.2020.107928)", "parents": {"B1": {"name": "Caulobacter ParB omega fusion; a variant is named by its letters at X, in order, B8GW30 (parent)", "chain": "MESVVVGEPGMSEGRRGLGRGLSALLGEVDAAPAQAPGEQLGGSREAPIEILQRNPDQPRRTFREEDLEDLSNSIREKGVLQPILVRPSPDTAGEYQIVAGERAWRAAQRAGLKTVPIMVRELDDLAVLEIGIIENVQRADLNVLEEALSYKVLMEKFERTQENIAQTIGKSXSHVANXMRLLXLPDEVQSYLVSGELTAXHARAIAAAADPVALAKQIIEGGLSVRETEALARKAPNLSAGKSKGGRPPRVKDTDTQALESDLSSVLGLDVSIDHRGSTGTLTITYATLEQLDDLCNRLTRGI"}}, "note": "Whole data set: some 81,000 sequences, median “one-hybrid fitness for binding parS DNA” near -0.17, cut for the highest 2% near 0.51. Some of the results follow."}
{"variants_of": "B1", "test": "one-hybrid fitness for binding parS DNA (scaled: cognate 1, non-cognate 0); higher = stronger binding", "conditions": "with parS DNA site", "procedure,_shortened": "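Bacterial one-hybrid selection in E. coli USO rpoZ- hisB- pyrF- with a HIS3 reporter carrying the site 19 bp from the promoter, screening Caulobacter ParB libraries with four specificity codons randomised (NNS). Cells grew 48 hours at 37°C on M9-minus-histidine plus 0.1 mM IPTG and 5 mM 3-AT. Plasmids before and after selection were Illumina-sequenced, three replicate libraries pooled, and variants under 10 reads dropped. Fitness is the log change in variant-to-wild-type read ratio, rescaled to cognate 1, non-cognate 0.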"}
{"variant": "SGYC", "one-hybrid fitness for binding parS DNA": "≤ 0.2"}
{"variant": "QHFN", "one-hybrid fitness for binding parS DNA": "≤ 0.2"}
{"variant": "GYSP", "one-hybrid fitness for binding parS DNA": "≤ 0.2"}
{"variant": "VSKE", "one-hybrid fitness for binding parS DNA": "≤ 0.2"}
{"variant": "VITC", "one-hybrid fitness for binding parS DNA": "≤ 0.2"}
{"variant": "KDAE", "one-hybrid fitness for binding parS DNA": "≤ 0.2"}
{"variant": "MCPV", "one-hybrid fitness for binding parS DNA": "≤ 0.2"}
{"variant": "TVTT", "one-hybrid fitness for binding parS DNA": "≤ 0.2"}
{"variant": "VGPL", "one-hybrid fitness for binding parS DNA": "≤ 0.2"}
{"variant": "RADT", "one-hybrid fitness for binding parS DNA": 0.732}
{"variant": "YSAD", "one-hybrid fitness for binding parS DNA": "≤ 0.2"}
{"variant": "NCSS", "one-hybrid fitness for binding parS DNA": "≤ 0.2"}
{"variant": "LLST", "one-hybrid fitness for binding parS DNA": "≤ 0.2"}
{"variant": "RSNE", "one-hybrid fitness for binding parS DNA": "≤ 0.2"}
{"variant": "VPKS", "one-hybrid fitness for binding parS DNA": "≤ 0.2"}
{"variant": "AATV", "one-hybrid fitness for binding parS DNA": "≤ 0.2"}
{"variant": "TTQG", "one-hybrid fitness for binding parS DNA": "≤ 0.2"}
{"variant": "PMVA", "one-hybrid fitness for binding parS DNA": "≤ 0.2"}
{"variant": "HNSQ", "one-hybrid fitness for binding parS DNA": "≤ 0.2"}
{"variant": "CNSV", "one-hybrid fitness for binding parS DNA": "≤ 0.2"}
{"variant": "PNSL", "one-hybrid fitness for binding parS DNA": "≤ 0.2"}
{"variant": "PTGA", "one-hybrid fitness for binding parS DNA": "≤ 0.2"}
{"variant": "DNKT", "one-hybrid fitness for binding parS DNA": "≤ 0.2"}
{"variant": "QQEY", "one-hybrid fitness for binding parS DNA": "≤ 0.2"}
{"variant": "TLNR", "one-hybrid fitness for binding parS DNA": "≤ 0.2"}
{"variant": "AAWC", "one-hybrid fitness for binding parS DNA": "≤ 0.2"}
{"variant": "VENW", "one-hybrid fitness for binding parS DNA": "≤ 0.2"}
{"variant": "RTKM", "one-hybrid fitness for binding parS DNA": 0.594}
{"variant": "GVSW", "one-hybrid fitness for binding parS DNA": "≤ 0.2"}
{"variant": "GRRH", "one-hybrid fitness for binding parS DNA": "≤ 0.2"}
{"variant": "VSFP", "one-hybrid fitness for binding parS DNA": "≤ 0.2"}
{"variant": "HHRF", "one-hybrid fitness for binding parS DNA": "≤ 0.2"}
{"variant": "QYNQ", "one-hybrid fitness for binding parS DNA": "≤ 0.2"}
{"variant": "LDLN", "one-hybrid fitness for binding parS DNA": "≤ 0.2"}
{"variant": "DRFL", "one-hybrid fitness for binding parS DNA": "≤ 0.2"}
{"variant": "LPDS", "one-hybrid fitness for binding parS DNA": "≤ 0.2"}
{"variant": "AILF", "one-hybrid fitness for binding parS DNA": "≤ 0.2"}
{"variant": "HMTH", "one-hybrid fitness for binding parS DNA": "≤ 0.2"}
{"variant": "RFCI", "one-hybrid fitness for binding parS DNA": "≤ 0.2"}
{"variant": "RGKD", "one-hybrid fitness for binding parS DNA": "≤ 0.2"}
{"variant": "VKTG", "one-hybrid fitness for binding parS DNA": "≤ 0.2"}
{"variant": "PGDF", "one-hybrid fitness for binding parS DNA": "≤ 0.2"}
{"variant": "QGAV", "one-hybrid fitness for binding parS DNA": "≤ 0.2"}
{"variant": "YNHG", "one-hybrid fitness for binding parS DNA": "≤ 0.2"}
{"variant": "GWGS", "one-hybrid fitness for binding parS DNA": "≤ 0.2"}
{"variant": "VHPM", "one-hybrid fitness for binding parS DNA": "≤ 0.2"}
{"variant": "SPHF", "one-hybrid fitness for binding parS DNA": "≤ 0.2"}
{"variant": "SNPR", "one-hybrid fitness for binding parS DNA": "≤ 0.2"}
{"variant": "QCEY", "one-hybrid fitness for binding parS DNA": "≤ 0.2"}
{"variant": "ALFK", "one-hybrid fitness for binding parS DNA": "≤ 0.2"}
{"variant": "YTDL", "one-hybrid fitness for binding parS DNA": "≤ 0.2"}
{"variant": "LVPK", "one-hybrid fitness for binding parS DNA": "≤ 0.2"}
{"variant": "EYCL", "one-hybrid fitness for binding parS DNA": "≤ 0.2"}
{"variant": "RSPD", "one-hybrid fitness for binding parS DNA": "≤ 0.2"}
{"variant": "YIAR", "one-hybrid fitness for binding parS DNA": "≤ 0.2"}
{"variant": "SPPT", "one-hybrid fitness for binding parS DNA": "≤ 0.2"}
{"variant": "NCHG", "one-hybrid fitness for binding parS DNA": "≤ 0.2"}
{"variant": "VQSF", "one-hybrid fitness for binding parS DNA": "≤ 0.2"}
{"variant": "PPCL", "one-hybrid fitness for binding parS DNA": "≤ 0.2"}
{"variant": "PTAD", "one-hybrid fitness for binding parS DNA": "≤ 0.2"}
{"variant": "NNPC", "one-hybrid fitness for binding parS DNA": "≤ 0.2"}
{"variant": "VATS", "one-hybrid fitness for binding parS DNA": "≤ 0.2"}
{"variant": "TTAD", "one-hybrid fitness for binding parS DNA": "≤ 0.2"}
{"variant": "HSNC", "one-hybrid fitness for binding parS DNA": "≤ 0.2"}
{"variant": "GMMF", "one-hybrid fitness for binding parS DNA": "≤ 0.2"}
{"variant": "QLPR", "one-hybrid fitness for binding parS DNA": "≤ 0.2"}
{"variant": "YYSN", "one-hybrid fitness for binding parS DNA": "≤ 0.2"}
{"variant": "VARQ", "one-hybrid fitness for binding parS DNA": "≤ 0.2"}
{"variant": "SDLG", "one-hybrid fitness for binding parS DNA": "≤ 0.2"}
{"variant": "RHFR", "one-hybrid fitness for binding parS DNA": "≤ 0.2"}
{"variant": "NGHF", "one-hybrid fitness for binding parS DNA": "≤ 0.2"}
{"variant": "RLRD", "one-hybrid fitness for binding parS DNA": "≤ 0.2"}
{"variant": "QKVF", "one-hybrid fitness for binding parS DNA": "≤ 0.2"}
{"variant": "GQAR", "one-hybrid fitness for binding parS DNA": "≤ 0.2"}
{"variant": "RVKP", "one-hybrid fitness for binding parS DNA": "≤ 0.2"}
{"variant": "DTSY", "one-hybrid fitness for binding parS DNA": "≤ 0.2"}
{"variant": "AMPL", "one-hybrid fitness for binding parS DNA": "≤ 0.2"}
{"variant": "RARV", "one-hybrid fitness for binding parS DNA": "≤ 0.2"}
{"variant": "ENCG", "one-hybrid fitness for binding parS DNA": "≤ 0.2"}
{"variant": "VHTM", "one-hybrid fitness for binding parS DNA": "≤ 0.2"}
{"variant": "YPMG", "one-hybrid fitness for binding parS DNA": "≤ 0.2"}
{"variant": "RLWY", "one-hybrid fitness for binding parS DNA": 0.497}
{"variant": "HPQD", "one-hybrid fitness for binding parS DNA": "≤ 0.2"}
{"variant": "TTMD", "one-hybrid fitness for binding parS DNA": "≤ 0.2"}
{"variant": "DAHI", "one-hybrid fitness for binding parS DNA": "≤ 0.2"}
{"variant": "AGPK", "one-hybrid fitness for binding parS DNA": "≤ 0.2"}
{"variant": "PKIC", "one-hybrid fitness for binding parS DNA": "≤ 0.2"}
{"variant": "DAVW", "one-hybrid fitness for binding parS DNA": "≤ 0.2"}
{"variant": "GATP", "one-hybrid fitness for binding parS DNA": "≤ 0.2"}
{"variant": "RDAG", "one-hybrid fitness for binding parS DNA": "≤ 0.2"}
{"variant": "QKCH", "one-hybrid fitness for binding parS DNA": "≤ 0.2"}
{"variant": "KPSL", "one-hybrid fitness for binding parS DNA": "≤ 0.2"}
{"variant": "TEHF", "one-hybrid fitness for binding parS DNA": "≤ 0.2"}
{"variant": "RTKV", "one-hybrid fitness for binding parS DNA": "≤ 0.2"}
{"variant": "MTNM", "one-hybrid fitness for binding parS DNA": "≤ 0.2"}
{"variant": "SLLI", "one-hybrid fitness for binding parS DNA": "≤ 0.2"}
{"variant": "EHRS", "one-hybrid fitness for binding parS DNA": "≤ 0.2"}
{"variant": "CVTH", "one-hybrid fitness for binding parS DNA": "≤ 0.2"}
{"variant": "KTAA", "one-hybrid fitness for binding parS DNA": "≤ 0.2"}
{"variant": "VTPA", "one-hybrid fitness for binding parS DNA": "≤ 0.2"}
{"variant": "RHAS", "one-hybrid fitness for binding parS DNA": 0.933}
{"variant": "TQSI", "one-hybrid fitness for binding parS DNA": "≤ 0.2"}
{"variant": "TKYT", "one-hybrid fitness for binding parS DNA": "≤ 0.2"}
{"variant": "YSAF", "one-hybrid fitness for binding parS DNA": "≤ 0.2"}
{"variant": "MAGV", "one-hybrid fitness for binding parS DNA": "≤ 0.2"}
{"variant": "KNYS", "one-hybrid fitness for binding parS DNA": "≤ 0.2"}
{"variant": "QDFW", "one-hybrid fitness for binding parS DNA": "≤ 0.2"}
{"variant": "APLM", "one-hybrid fitness for binding parS DNA": "≤ 0.2"}
{"variant": "TCLG", "one-hybrid fitness for binding parS DNA": "≤ 0.2"}
{"variant": "LHSP", "one-hybrid fitness for binding parS DNA": "≤ 0.2"}
{"variant": "DWWS", "one-hybrid fitness for binding parS DNA": "≤ 0.2"}
{"variant": "ALAL", "one-hybrid fitness for binding parS DNA": "≤ 0.2"}
{"variant": "WWTG", "one-hybrid fitness for binding parS DNA": "≤ 0.2"}
{"variant": "KRTW", "one-hybrid fitness for binding parS DNA": "≤ 0.2"}
{"variant": "ILMY", "one-hybrid fitness for binding parS DNA": "≤ 0.2"}
{"variant": "CRIT", "one-hybrid fitness for binding parS DNA": "≤ 0.2"}
{"variant": "RWKR", "one-hybrid fitness for binding parS DNA": "≤ 0.2"}
{"variant": "TAHR", "one-hybrid fitness for binding parS DNA": "≤ 0.2"}
{"variant": "YLPT", "one-hybrid fitness for binding parS DNA": "≤ 0.2"}
{"variant": "YLIN", "one-hybrid fitness for binding parS DNA": "≤ 0.2"}
{"variant": "PICR", "one-hybrid fitness for binding parS DNA": "≤ 0.2"}
{"variant": "RVHR", "one-hybrid fitness for binding parS DNA": "≤ 0.2"}
{"variant": "IHQG", "one-hybrid fitness for binding parS DNA": "≤ 0.2"}
{"variant": "PAMF", "one-hybrid fitness for binding parS DNA": "≤ 0.2"}
{"variant": "RFMA", "one-hybrid fitness for binding parS DNA": 0.504}
{"variant": "HIAG", "one-hybrid fitness for binding parS DNA": "≤ 0.2"}
{"variant": "NPNG", "one-hybrid fitness for binding parS DNA": "≤ 0.2"}
{"variant": "HFDS", "one-hybrid fitness for binding parS DNA": "≤ 0.2"}
{"variant": "QFTH", "one-hybrid fitness for binding parS DNA": "≤ 0.2"}
{"variant": "GSSG", "one-hybrid fitness for binding parS DNA": "≤ 0.2"}
{"variant": "YFAT", "one-hybrid fitness for binding parS DNA": "≤ 0.2"}
{"variant": "GIKT", "one-hybrid fitness for binding parS DNA": "≤ 0.2"}
{"variant": "VHPA", "one-hybrid fitness for binding parS DNA": "≤ 0.2"}
{"variant": "QWPG", "one-hybrid fitness for binding parS DNA": "≤ 0.2"}
{"variant": "QQYS", "one-hybrid fitness for binding parS DNA": "≤ 0.2"}
{"variant": "HGVD", "one-hybrid fitness for binding parS DNA": "≤ 0.2"}
{"variant": "RCVH", "one-hybrid fitness for binding parS DNA": "≤ 0.2"}
{"variant": "RRHF", "one-hybrid fitness for binding parS DNA": "≤ 0.2"}
{"variant": "PRNT", "one-hybrid fitness for binding parS DNA": "≤ 0.2"}
{"variant": "TCTG", "one-hybrid fitness for binding parS DNA": "≤ 0.2"}
{"variant": "HKEK", "one-hybrid fitness for binding parS DNA": 0.24}
{"variant": "NMNI", "one-hybrid fitness for binding parS DNA": "≤ 0.2"}
{"variant": "INLW", "one-hybrid fitness for binding parS DNA": "≤ 0.2"}
{"variant": "YTAV", "one-hybrid fitness for binding parS DNA": "≤ 0.2"}
{"variant": "KIVS", "one-hybrid fitness for binding parS DNA": "≤ 0.2"}
{"variant": "FVHS", "one-hybrid fitness for binding parS DNA": "≤ 0.2"}
{"variant": "RALV", "one-hybrid fitness for binding parS DNA": "≤ 0.2"}
{"variant": "AVFW", "one-hybrid fitness for binding parS DNA": 0.23}
{"variant": "LQAG", "one-hybrid fitness for binding parS DNA": "≤ 0.2"}
{"variant": "DGMS", "one-hybrid fitness for binding parS DNA": "≤ 0.2"}
{"variant": "NQRA", "one-hybrid fitness for binding parS DNA": "≤ 0.2"}
{"variant": "APPH", "one-hybrid fitness for binding parS DNA": "≤ 0.2"}
{"variant": "RYMR", "one-hybrid fitness for binding parS DNA": "≤ 0.2"}
